# Test results as given in the supplement of paper PMC8728848.
# This is one part of the list.
# B1: MAA (Maackia amurensis), P0DKL3 (protein)
# chain: MATSNSKPTQVLLATFLTFFFLLLNNVNSSDELSFTINNFVPNEADLLFQGEASVSSTGVLQLTRVENGQPQKYSVGRALYAAPVRIWDNTTGSVASFSTSFTFVVKAPNPDITSDGLAFYLAPPDSQIPSGSVSKYLGLFNNSNSDSSNQIVAVELDTYFAHSYDPWDPNYRHIGIDVNGIESIKTVQWDWINGGVAFATITYLAPNKTLIASLVYPSNQTTFSVAASVDLKEILPEWVRVGFSAATGYPTEVETHDVLSWSFTSTLEANCDAATENNVHIARYTA
# Key:
# Assay in all cases: glycan array binding signal (z-score within array); higher = stronger binding
# Conditions in all cases: glycan notation: IUPAC condensed, linker removed
# [1] = molecular target: GlcA3S(b1-3)Gal(b1-4)GlcNAc(b1-3)Gal(b1-4)Glc
# Procedure, shortened: (§1)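 The Consortium for Functional Glycomics database supplied 3228 glycan arrays, of which those lacking an available protein sequence were dropped. The binding signal, a within-array Z-score, was averaged across arrays of the same protein sequence and across linkers. Negative scores can be read as non-binding.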
# [2] = molecular target: GlcNAc(a1-3)Gal(b1-4)GlcNAc
# Procedure, shortened: as §1
# [3] = molecular target: GlcNAc(a1-4)Gal(b1-3)GlcNAc
# Procedure, shortened: as §1
# [4] = molecular target: GlcNAc(a1-4)Gal(b1-4)GalNAc
# Procedure, shortened: as §1
# [5] = molecular target: GlcNAc(a1-4)Gal(b1-4)GlcNAc
# Procedure, shortened: as §1
# [6] = molecular target: GlcNAc(a1-4)Gal(b1-4)GlcNAc(b1-3)Gal(b1-4)Glc
# Procedure, shortened: as §1
# [7] = molecular target: GlcNAc(a1-4)Gal(b1-4)GlcNAc(b1-3)Gal(b1-4)GlcNAc
# Procedure, shortened: as §1
# [8] = molecular target: GlcNAc(a1-4)Gal(b1-4)GlcNAc(b1-3)Gal(b1-4)GlcNAc(b1-3)Gal(b1-4)GlcNAc
# Procedure, shortened: as §1
# [9] = molecular target: GlcNAc(a1-4)Gal(b1-4)GlcNAc(b1-3)Gal(b1-4)[Fuc(a1-3)]GlcNAc(b1-3)Gal(b1-4)[Fuc(a1-3)]GlcNAc
# Procedure, shortened: as §1
# [10] = molecular target: GlcNAc(a1-6)Gal(b1-4)GlcNAc
# Procedure, shortened: as §1
# [11] = molecular target: GlcNAc(b1-2)Gal(b1-3)GalNAc
# Procedure, shortened: as §1
# [12] = molecular target: GlcNAc(b1-2)Man(a1-3)[GlcNAc(b1-2)Man(a1-6)]Man(b1-4)GlcNAc(b1-4)GlcNAc
# Procedure, shortened: as §1
# [13] = molecular target: GlcNAc(b1-2)Man(a1-3)[GlcNAc(b1-2)Man(a1-6)]Man(b1-4)GlcNAc(b1-4)[Fuc(a1-6)]GlcNAc
# Procedure, shortened: as §1
# [14] = molecular target: GlcNAc(b1-2)Man(a1-3)[GlcNAc(b1-4)][GlcNAc(b1-2)Man(a1-6)]Man(b1-4)GlcNAc(b1-4)GlcNAc
# Procedure, shortened: as §1
# [15] = molecular target: GlcNAc(b1-2)Man(a1-3)[GlcNAc(b1-4)][GlcNAc(b1-2)Man(a1-6)]Man(b1-4)GlcNAc(b1-4)[Fuc(a1-6)]GlcNAc
# Procedure, shortened: as §1
# [16] = molecular target: GlcNAc(b1-2)[GlcNAc(b1-4)]Man(a1-3)[GlcNAc(b1-2)Man(a1-6)]Man(b1-4)GlcNAc(b1-4)GlcNAc
# Procedure, shortened: as §1
# [17] = molecular target: GlcNAc(b1-2)[GlcNAc(b1-4)]Man(a1-3)[GlcNAc(b1-4)][GlcNAc(b1-2)Man(a1-6)]Man(b1-4)GlcNAc(b1-4)GlcNAc
# Procedure, shortened: as §1
# [18] = molecular target: GlcNAc(b1-2)[GlcNAc(b1-4)]Man(a1-3)[GlcNAc(b1-4)][GlcNAc(b1-2)[GlcNAc(b1-6)]Man(a1-6)]Man(b1-4)GlcNAc(b1-4)GlcNAc
# Procedure, shortened: as §1
# [19] = molecular target: GlcNAc(b1-2)[GlcNAc(b1-4)]Man(a1-3)[GlcNAc(b1-4)][GlcNAc(b1-2)[GlcNAc(b1-6)]Man(a1-6)]Man(b1-4)GlcNAc(b1-4)[Fuc(a1-6)]GlcNAc
# Procedure, shortened: as §1
# [20] = molecular target: GlcNAc(b1-2)[GlcNAc(b1-6)]Man(a1-6)[GlcNAc(b1-2)Man(a1-3)]Man(b1-4)GlcNAc(b1-4)GlcNAc
# Procedure, shortened: as §1
# [21] = molecular target: GlcNAc(b1-2)[GlcNAc(b1-6)]Man(a1-6)[GlcNAc(b1-2)Man(a1-3)]Man(b1-4)GlcNAc(b1-4)[Fuc(a1-6)]GlcNAc
# Procedure, shortened: as §1
# [22] = molecular target: GlcNAc(b1-2)[GlcNAc(b1-6)]Man(a1-6)[GlcNAc(b1-4)][GlcNAc(b1-2)Man(a1-3)]Man(b1-4)GlcNAc(b1-4)GlcNAc
# Procedure, shortened: as §1
binder,measurement,setting,value
B1,glycan array binding signal (z-score),[1],-0.278
same,glycan array binding signal (z-score),[2],0.192
same,glycan array binding signal (z-score),[3],-0.226
same,glycan array binding signal (z-score),[4],-0.158
same,glycan array binding signal (z-score),[5],0.28
same,glycan array binding signal (z-score),[6],0.343
same,glycan array binding signal (z-score),[7],0.358
same,glycan array binding signal (z-score),[8],0.056
same,glycan array binding signal (z-score),[9],-0.055
same,glycan array binding signal (z-score),[10],-0.236
same,glycan array binding signal (z-score),[11],-0.23
same,glycan array binding signal (z-score),[12],-0.194
same,glycan array binding signal (z-score),[13],-0.161
same,glycan array binding signal (z-score),[14],-0.301
same,glycan array binding signal (z-score),[15],-0.164
same,glycan array binding signal (z-score),[16],-0.203
same,glycan array binding signal (z-score),[17],-0.232
same,glycan array binding signal (z-score),[18],-0.265
same,glycan array binding signal (z-score),[19],-0.307
same,glycan array binding signal (z-score),[20],-0.214
same,glycan array binding signal (z-score),[21],-0.247
same,glycan array binding signal (z-score),[22],-0.266
